From US7517874B2 (priority 2007, dated 2009)

Molecular target: human CB2 receptor (hCB2) (Homo sapiens, UniProt P34972)
Assay: cell-based
Format: cell-based
Settings: not given

Chain of human CB2 receptor (hCB2) (P34972 whole entry): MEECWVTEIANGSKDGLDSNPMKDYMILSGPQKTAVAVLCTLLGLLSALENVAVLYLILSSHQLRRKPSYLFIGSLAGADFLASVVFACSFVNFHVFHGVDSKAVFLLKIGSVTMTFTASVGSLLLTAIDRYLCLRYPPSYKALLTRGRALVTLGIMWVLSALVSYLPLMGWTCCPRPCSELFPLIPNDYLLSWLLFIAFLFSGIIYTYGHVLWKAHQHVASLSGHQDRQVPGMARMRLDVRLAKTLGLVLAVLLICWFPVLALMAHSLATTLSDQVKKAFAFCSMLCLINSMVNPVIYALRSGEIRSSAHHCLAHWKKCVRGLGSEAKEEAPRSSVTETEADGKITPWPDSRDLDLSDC

Structure (SMILES) | EC50 [nM]
CNC(=O)[C@@H](NC(=O)c1nc(-c2ccccc2C#N)n2c1CN(C)CC2)C(C)(C)C [Compound 259, (S)-3-(2-cyanophenyl)-N-(3,3-dimethyl-1-(methylamino)-1-oxobutan-2-yl)-7-methyl-5,6,7,8-tetrahydroimidazo[1,5-a]pyrazine-1-carboxamide] | > 10000
CNC(=O)[C@@H](NC(=O)c1nc(-c2cccc3ccccc23)n2c1CN(C)CCC2)C(C)(C)C [Compound 417, (S)-N-(3,3-dimethyl-1-(methylamino)-1-oxobutan-2-yl)-8-methyl-3-(naphthalen-1-yl)-6,7,8,9-tetrahydro-5H-imidazo[1,5-a][1,4]diazepine-1-carboxamide] | > 10000
CNC(=O)[C@@H](NC(=O)c1nc(-c2ccc(C)cc2F)n2c1CNCCC2)C(C)(C)C [Compound 316, (S)-N-(3,3-dimethyl-1-(methylamino)-1-oxobutan-2-yl)-3-(2-fluoro-4-methylphenyl)-6,7,8,9-tetrahydro-5H-imidazo[1,5-a][1,4]diazepine-1-carboxamide] | > 10000
CNC(=O)[C@@H](NC(=O)c1nc(-c2ccc(C(=O)N3CCOCC3)cc2)n2c1CN(C)CCC2)C(C)(C)C [Compound 401, (S)-N-(3,3-dimethyl-1-(methylamino)-1-oxobutan-2-yl)-8-methyl-3-(4-(morpholine-4-carbonyl)phenyl)-6,7,8,9-tetrahydro-5H-imidazo[1,5-a][1,4]diazepine-1-carboxamide] | > 10000
CC(C)CN1CCn2c(-c3ccccc3)nc(C(=O)N[C@H](CO)C(C)(C)C)c2C1 [Compound 60, (S)-N-(1-hydroxy-3,3-dimethylbutan-2-yl)-7-isobutyl-3-phenyl-5,6,7,8-tetrahydroimidazo[1,5-a]pyrazine-1-carboxamide] | > 10000
CC(C)CN1CCn2c(-c3ccccc3)nc(C(=O)NN3CCCCC3)c2C1 [Compound 155, 7-isobutyl-3-phenyl-N-(piperidin-1-yl)-5,6,7,8-tetrahydroimidazo[1,5-a]pyrazine-1-carboxamide] | > 10000
CC(=O)N1CCn2c(-c3ccccc3)nc(C(=O)NCC3CCOCC3)c2C1 [Compound 176, 7-acetyl-3-phenyl-N-((tetrahydro-2H-pyran-4-yl)methyl)-5,6,7,8-tetrahydroimidazo[1,5-a]pyrazine-1-carboxamide] | > 10000

Same assay, conditions: agonist or inverse agonist at hCB2

Structure (SMILES) | +/− HCB2
CNC(=O)[C@@H](NC(=O)c1nc(-c2ccccc2)n2c1CN(c1cncc(Cl)n1)CC2)C(C)(C)C [Compound 300, (S)-7-(6-chloropyrazin-2-yl)-N-(3,3-dimethyl-1-(methylamino)-1-oxobutan-2-yl)-3-phenyl-5,6,7,8-tetrahydroimidazo[1,5-a]pyrazine-1-carboxamide] | −
CN1CCCn2c(-c3cc(Cl)ccc3F)nc(C(=O)N[C@@H](CC(C)(C)C)C(N)=O)c2C1 [Compound 585, (S)-N-(1-amino-4,4-dimethyl-1-oxopentan-2-yl)-3-(5-chloro-2-fluorophenyl)-8-methyl-6,7,8,9-tetrahydro-5H-imidazo[1,5-a][1,4]diazepine-1-carboxamide] | +
CN1CCCn2c(-c3ccc(Cl)c(F)c3)nc(C(=O)N[C@H](C(N)=O)C(C)(C)C)c2C1 [Compound 577, (S)-N-(1-amino-3,3-dimethyl-1-oxobutan-2-yl)-3-(4-chloro-3-fluorophenyl)-8-methyl-6,7,8,9-tetrahydro-5H-imidazo[1,5-a][1,4]diazepine-1-carboxamide] | +
CNC(=O)[C@@H](NC(=O)c1nc(-c2cscc2C)n2c1CNCC2)C(C)(C)C [Compound 21, (S)-N-(3,3-dimethyl-1-(methylamino)-1-oxobutan-2-yl)-3-(4-methylthiophen-3-yl)-5,6,7,8-tetrahydroimidazo[1,5-a]pyrazine-1-carboxamide] | +
CNC(=O)[C@@H](NC(=O)c1nc(-c2ccsc2)n2c1CNCC2)C(C)(C)C [Compound 11, (S)-N-(3,3-dimethyl-1-(methylamino)-1-oxobutan-2-yl)-3-(thiophen-3-yl)-5,6,7,8-tetrahydroimidazo[1,5-a]pyrazine-1-carboxamide] | +
CNC(=O)[C@@H](NC(=O)c1nc(C=C(C)C)n2c1CN(C)CCC2)C(C)(C)C [Compound 377, (S)-N-(3,3-dimethyl-1-(methylamino)-1-oxobutan-2-yl)-8-methyl-3-(2-methylprop-1-enyl)-6,7,8,9-tetrahydro-5H-imidazo[1,5-a][1,4]diazepine-1-carboxamide] | +
CCc1nc(C(=O)N[C@H](C(=O)NC)C(C)(C)C)c2n1CCN(C)C2 [Compound 310, (S)-N-(3,3-dimethyl-1-(methylamino)-1-oxobutan-2-yl)-3-ethyl-7-methyl-5,6,7,8-tetrahydroimidazo[1,5-a]pyrazine-1-carboxamide] | −
Cc1noc([C@@H](NC(=O)c2nc(-c3ccccc3)n3c2CN(C(=O)OC(C)(C)C)CCC3)C(C)(C)C)n1 [Compound 517, (S)-tert-butyl 1-(2,2-dimethyl-1-(3-methyl-1,2,4-oxadiazol-5-yl)propylcarbamoyl)-3-phenyl-6,7-dihydro-5H-imidazo[1,5-a][1,4]diazepine-8(9H)-carboxylate] | −
CNC(=O)[C@H](CC(C)(C)C)NC(=O)c1nc(-c2cc(Cl)c(F)cc2F)n2c1CN(C)CCC2 [Compound 554, (S)-3-(5-chloro-2,4-difluorophenyl)-N-(4,4-dimethyl-1-(methylamino)-1-oxopentan-2-yl)-8-methyl-6,7,8,9-tetrahydro-5H-imidazo[1,5-a][1,4]diazepine-1-carboxamide] | +
CN1CCn2c(-c3ccccc3)nc(C(=O)CCCc3ccccc3)c2C1 [Compound 294, 1-(7-methyl-3-phenyl-5,6,7,8-tetrahydroimidazo[1,5-a]pyrazin-1-yl)-4-phenylbutan-1-one] | −
CNC(=O)[C@@H](NC(=O)c1nc(-c2cccc(F)c2)n2c1CN(C)CCC2)C(C)(C)C [Compound 345, (S)-N-(3,3-dimethyl-1-(methylamino)-1-oxobutan-2-yl)-3-(3-fluorophenyl)-8-methyl-6,7,8,9-tetrahydro-5H-imidazo[1,5-a][1,4]diazepine-1-carboxamide] | +

Same assay, conditions: groups >100 nM-10 μM and >10 μM; cAMP, CHO-K1 hCB2; read-out: EC50 HCB2

Structure (SMILES) | EC50 [nM]
CNC(=O)[C@@H](NC(=O)c1nc(-c2cnn(C)c2)n2c1CNCC2)C(C)(C)C [Compound 17, (S)-N-(3,3-dimethyl-1-(methylamino)-1-oxobutan-2-yl)-3-(1-methyl-1H-pyrazol-4-yl)-5,6,7,8-tetrahydroimidazo[1,5-a]pyrazine-1-carboxamide] | > 10000
CN1CCn2c(-c3ccccc3)nc(C(=O)NCC(C)(C)CO)c2C1 [Compound 82, N-(3-hydroxy-2,2-dimethylpropyl)-7-methyl-3-phenyl-5,6,7,8-tetrahydroimidazo[1,5-a]pyrazine-1-carboxamide] | > 10000
CNC(=O)[C@H](C)NC(=O)c1nc(-c2ccccc2)n2c1CNCC2 [Compound 28, (S)-N-(1-(methylamino)-1-oxopropan-2-yl)-3-phenyl-5,6,7,8-tetrahydroimidazo[1,5-a]pyrazine-1-carboxamide] | > 10000
